Experimental data as given in PubChem BioAssay AID1460 (National Center for Advancing Translational Sciences (NCATS), 2008).
The campaign covered roughly 270,000 compounds. About 5,800 (2.1%) were called active. Inconclusive results, whose numbers are uncertain, are shown with a selection of clear calls. Calls follow the shape of the dose curve; as a rule, active = well fitted inhibition curve with a large enough effect; inconclusive = small, poorly fitted or top-dose-only effect; inactive = flat fitted curve, though single readings scatter. A potency beside an inconclusive call is a rough fit, not a confirmed value. Some compounds were tested as several samples or in several runs, with calls that do not always agree.

Target: Microtubule-associated protein tau (Homo sapiens) (UniProt P10636)
Assay: qHTS for Inhibitors of Tau Fibril Formation, Thioflavin T Binding; also: nearly all actives have a fitted effect of over 55% in size
Details: recombinant tau K18 P301L (four-repeat tau fragment), heparin-induced fibrillization, ThT fluorescence; series mostly up to 57.4 µM; activity, negative = inhibition: at the top concentration
Procedure, shortened: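 Heparin-induced fibrillization of the P301L-mutant K18 repeat-domain fragment of human tau was followed by ThT binding in quantitative high-throughput format.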
% is scaled to controls: 0 for no effect and ±100 for the full control effect; potency is read from the fitted curve at half-maximal effect; tags tell the direction and shape of the fitted curve.

Chain of UniProt P10636 (P10636 whole entry, looked up): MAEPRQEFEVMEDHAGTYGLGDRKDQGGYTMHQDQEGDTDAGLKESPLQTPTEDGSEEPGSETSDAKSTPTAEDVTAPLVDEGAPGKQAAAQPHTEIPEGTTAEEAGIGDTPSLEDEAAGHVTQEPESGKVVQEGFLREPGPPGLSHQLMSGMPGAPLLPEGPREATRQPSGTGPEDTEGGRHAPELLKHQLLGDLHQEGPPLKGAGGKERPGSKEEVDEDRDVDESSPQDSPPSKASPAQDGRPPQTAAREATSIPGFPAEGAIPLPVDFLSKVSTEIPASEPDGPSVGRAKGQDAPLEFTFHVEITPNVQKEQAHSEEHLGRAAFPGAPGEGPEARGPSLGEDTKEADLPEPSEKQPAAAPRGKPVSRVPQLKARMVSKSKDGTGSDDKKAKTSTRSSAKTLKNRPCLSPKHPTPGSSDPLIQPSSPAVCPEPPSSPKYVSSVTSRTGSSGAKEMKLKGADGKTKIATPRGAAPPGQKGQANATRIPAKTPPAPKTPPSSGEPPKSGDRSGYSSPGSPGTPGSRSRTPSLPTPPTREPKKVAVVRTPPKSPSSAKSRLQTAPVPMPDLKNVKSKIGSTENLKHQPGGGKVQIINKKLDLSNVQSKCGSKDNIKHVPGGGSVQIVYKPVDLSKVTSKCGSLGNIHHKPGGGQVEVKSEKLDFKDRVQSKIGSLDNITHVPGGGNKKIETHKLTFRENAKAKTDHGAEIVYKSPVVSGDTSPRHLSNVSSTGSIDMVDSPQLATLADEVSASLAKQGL

SMILES	Potency	activity, negative = inhibition
CCOC(=O)c1c(Nc2ccc(OCC)cc2)nnc(-c2ccccc2)c1-c1ccccc1	inconclusive: 11.2 µM [inhibitor, partial curve]	–
COc1ccccc1C(=O)Nc1nnc(S(=O)(=O)N2CCCCC2)s1	inconclusive: 3.55 µM [inhibitor, full curve]	–
COc1ccc(Cl)cc1NC(=O)c1c(NCc2cccnc2)sc2c1CCCC2	active: 17.8 µM	–
COC(=O)CCC(=O)OC1(C)C(=O)C2=CN(CCN3CCOCC3)C(c3ccc(OC)cc3)=CC2=C(Br)C1=O (stereo not drawn)	active: 7.08 µM	–
CCOc1ccc2c(c1)c(N=NC(N)=S)c(O)n2C	inconclusive: 3.55 µM [inhibitor, full curve]	–
COc1cc(C=Nc2cccc(C)c2)c(O)c([N+](=O)[O-])c1	active: 7.94 µM	–
C=CCN1c2ccccc2[C@]23C[C@@H](C(=O)OC)N(C(=O)c4cccs4)C2=NC(C(=O)OC)=C(C(=O)OC)[C@H]13	inconclusive: 25.1 µM [inhibitor, single point]	–
CSc1ccc(CCNS(=O)(=O)c2cc(-c3cc(C)no3)ccc2C)cc1	–	inactive: 3.28%
CCOC(=O)N/N=C/c1c(C)c(C(=O)c2ccc(F)cc2)n2ccccc12	inconclusive: 12.6 µM [inhibitor, partial curve]	–
O=C1CCC2S/C(=C/Nc3ccc(C(F)(F)F)cc3)C(=O)N12 (stereo not drawn)	inconclusive: 7.08 µM [inhibitor, partial curve]	–
CC1(C(=O)OCc2cc(=O)n3cc(Br)ccc3n2)CC1(Cl)Cl (stereo not drawn)	–	inactive: -15%
O=C(CSc1c2c(nc3ccc(Cl)cc13)CCCC2)N1CCN(c2ccc(Cl)cc2)CC1	inconclusive: 8.91 µM [inhibitor, partial curve]	–
CC(=O)c1cccc(NC(=O)Nc2cccs2)c1	inconclusive: 31.6 µM [inhibitor, partial curve]	–
COc1ccc(-n2c(Cc3ccccc3)nnc2SCC(=O)N2CCCc3ccccc32)cc1	inconclusive: 14.1 µM [inhibitor, partial curve]	–
Cc1cccc(C(=O)Nc2nnc(S(=O)(=O)N3CCOCC3)s2)c1	active: 3.55 µM	–
CCCn1c(=O)c2c(C(F)(F)F)cc(-c3ccco3)nc2n(CCC)c1=O	inconclusive: 0.0251 µM [inhibitor, full curve, poor fit]	–
Nc1cc(-c2nn[nH]n2)ccc1F	inconclusive: 17.8 µM [inhibitor, partial curve]	–
CN1C(=O)CSc2ccc(NC(=O)N3CCN(c4ccccn4)CC3)cc21	inconclusive: 15.8 µM [inhibitor, partial curve]	–
O=C(CNc1ccc(F)cc1)N/N=C1\CCc2ccccc21	inconclusive: 22.4 µM [inhibitor, single point]	–
COc1cc(OC)c(NC(=O)c2nn(C)c3c2COc2ccccc2-3)cc1Cl	–	inactive: -5.9%
CCN(CC)S(=O)(=O)c1ccc(OC)c(NC(=O)/C=C/c2ccco2)c1	inconclusive: 39.8 µM [inhibitor, single point]	–
CCS(=O)(=O)N1CCN(c2ccc(C(=O)NC3C4CC5CC(C4)CC3C5)cc2[N+](=O)[O-])CC1 (stereo not drawn)	inconclusive: 14.1 µM [inhibitor, partial curve]	–
O=C(COc1ccc(F)cc1)NNC(=O)c1cc2ccccc2oc1=O	inconclusive: 12.6 µM [inhibitor, partial curve]	–

SMILES	Potency	activity, negative = inhibition
Cc1[nH]n(-c2ccccc2)c(=O)c1C=Nc1cccc(F)c1	inconclusive: 15.8 µM [inhibitor, partial curve, poor fit]	–
CCCN(CCC)CCCNC(=S)Nc1ccc2nc(N3CCCC3)cc(C)c2c1	–	inactive: -10.8%
COc1ccc(C2OC(=O)c3ccccc3S2)cc1 (stereo not drawn)	inconclusive: 6.31 µM [inhibitor, partial curve]	–
Cc1ccc(C)c(N(CC(=O)NC2CCCC2)C(=O)c2oc(C(C)(C)C)cc2C)c1	inconclusive: 28.2 µM [inhibitor, partial curve, poor fit]	–
C#CCOc1c(Br)cc(C2C(C(=O)OC)=C(C)NC3=C2C(=O)c2ccccc23)cc1OCC (stereo not drawn)	active: 6.31 µM	–
COc1ccc(Nc2nc(C)c3ccccc3n2)cc1	inconclusive: 12.6 µM [inhibitor, partial curve]	–
CCOC(=O)c1cnc2cc(Cl)c(OC)cc2c1Nc1ccc(Br)cc1C	inconclusive: 2.51 µM [inhibitor, partial curve, poor fit]	–
Cc1cccc(C(=O)n2nc(-c3ccco3)nc2NCc2ccccc2)c1	–	inactive: -7.29%
C/C(=N\NC(=O)c1nn(C)c(C)c1Br)c1ccc(NC(=O)c2ccccc2F)cc1	inconclusive: 0.398 µM [inhibitor, full curve]	–
COc1ccc(-n2cnc3cc(N)ccc32)cc1	inconclusive: 25.1 µM [inhibitor, single point]	–
COc1ccc(CN(C(=O)c2cnccn2)C(C(=O)Nc2ccc(F)cc2)c2ccccc2)cc1 (stereo not drawn)	–	inactive: -3.7%
O=C(COCc1cc(-c2ccc3c(c2)OCO3)on1)Nc1cccc(O)c1	inconclusive: 1 µM [inhibitor, full curve]	–
Cc1cc(C)c(S(=O)(=O)ON2C(=O)c3ccccc3C2=O)cc1C	inconclusive: 12.6 µM [inhibitor, partial curve]	–
CCCN1C(=O)/C(=C2\SC(N3CCCCC3)=NC2=O)c2ccccc21	active: 15.8 µM	–
O=C(Nc1ccc(Br)cc1)Nc1nc2c(s1)CCCCCC2	inconclusive: 25.1 µM [activator, single point]	–
CC(C)=C1SC(N2CCN(c3ccc(Cl)cc3)CC2)=NC1=O	inconclusive: 1.26 µM [inhibitor, partial curve, poor fit]	–
CCN(CC)S(=O)(=O)c1ccc2c(c1)N(CC(=O)Nc1cccc(C(C)=O)c1)C(=O)CO2	–	inactive: 3.85%
Cc1ccc(-n2nc(-c3ccc(OC(F)(F)F)cc3)cc2N)cc1C	inconclusive: 17.8 µM [inhibitor, partial curve]	–
Cc1ccc(NN=Nc2nc3c([nH]2)c(=O)n(C)c(=O)n3C)cc1	active: 28.2 µM	–
CCOC(=O)c1cn(Cc2cccc(Cl)c2)nn1	–	inactive: 7.05%
CCOc1cc(N2CCOCC2)c(OCC)cc1NC(=O)CSc1ncn[nH]1	–	inactive: -16.8%
CCOc1ccc(OCc2ccc(C(=O)N3N=C(C(F)F)CC3(O)C(F)F)o2)cc1 (stereo not drawn)	inconclusive: 25.1 µM [inhibitor, partial curve]	–
COc1ccc(-c2c(C#N)c(SCC(N)=O)nc3c2CCCC3)cc1	–	inactive: -6.27%

SMILES	Potency	activity, negative = inhibition
CCOC(=O)N1CCC(NC(=O)CN2C(=O)CSc3nc(C)cc(C)c32)CC1	inconclusive: 5.62 µM [inhibitor, full curve]	–
Cc1ccc(CSc2nc3ccncc3n2CC(=O)Nc2cc(C)cc(C)c2)cc1	–	inactive: -4.19%
COCCN(C(=S)Nc1cc(C)cc(C)c1)C(C)c1cccs1 (stereo not drawn)	inconclusive: 15.8 µM [inhibitor, partial curve]	–
Cn1c(NC(=S)Nc2ccccc2)nc2ccccc21	inconclusive: 1.58 µM [inhibitor, full curve, poor fit]	–
Cn1cccc1/C=C1\SC(=S)N(NC(=O)c2cccc(Cl)c2)C1=O	active: 3.98 µM	–
COc1ccc(C(=O)NC(=S)NCCc2ccccc2)cc1	–	inactive: -11.4%
Oc1c(Br)cc(C2N=C(c3ccccc3)NO2)cc1Br (stereo not drawn)	inconclusive: 28.2 µM [inhibitor, partial curve, poor fit]	–
Cc1c(Cl)cccc1-c1ccc(C(=O)Nc2ccc3oc(-c4cccnc4)nc3c2)o1	inconclusive: 1 µM [inhibitor, full curve]	–
Cc1cc(C)nc(Sc2ccc([N+](=O)[O-])cc2[N+](=O)[O-])n1	inconclusive: 14.1 µM [inhibitor, partial curve]	–
C=CCC(C)(O)CCc1ccccc1 (stereo not drawn)	–	inactive: -0.176%
COc1cccc(Cn2c(=O)n(-c3cc(C)cc(C)c3)c(=O)c3oc4ccccc4c32)c1	–	inactive: 0.678%
COc1ccc(OC)c(NC(=O)c2cc3n(n2)C(C(F)(F)F)CC(c2ccc4c(c2)OCO4)N3)c1 (stereo not drawn)	inconclusive: 5.62 µM [inhibitor, partial curve]	–
c1ccc(C(c2ccccc2)N2CCN(Cc3nnnn3C3CCCCC3)CC2)cc1	inconclusive: 28.2 µM [inhibitor, partial curve]	–
CC(=O)Nc1ccc(NS(=O)(=O)c2ccc(C)cc2)c([N+](=O)[O-])c1	inconclusive: 31.6 µM [inhibitor, single point]	–
COCCCNc1oc(-c2ccc(COc3ccccc3C)o2)nc1C#N	inconclusive: 31.6 µM [inhibitor, single point]	–
Cc1cccc(Nc2n[nH]c(=S)s2)c1C	inconclusive: 25.1 µM [inhibitor, partial curve]	–
CC(C)(C)CC(=O)Nc1ccccc1N1CCN(c2ccccc2)CC1	inconclusive: 25.1 µM [inhibitor, partial curve, poor fit]	–
O=C(N/N=C\c1cn[nH]c1-c1ccccc1)c1ccc([N+](=O)[O-])cc1	inconclusive: 25.1 µM [inhibitor, single point]	–
COc1cc(C(=O)N/N=C/c2cc([N+](=O)[O-])cs2)cc(OC)c1OC	–	inactive: -8.46%
CCCN1C(=O)c2cc(C(=O)Nc3ccc(OC)c(OC)c3)ccc2C1Nc1ccc(OC)c(OC)c1 (stereo not drawn)	inconclusive: 20 µM [inhibitor, partial curve]	–
CCc1ccccc1NC(=O)Cn1cc(C(=O)c2ccncc2)c(=O)c2cc(C)ccc21	inconclusive: 31.6 µM [inhibitor, single point]	–
COc1ccc(NC(=O)Nc2ccc(Cc3ccncc3)cc2)c(OC)c1	inconclusive: 20 µM [inhibitor, partial curve]	–
